Experimental data from PubChem BioAssay AID330 (DTP/NCI, 2004).
Values joined by “and” are separate entries in the source; they are usually repeats but may differ in a detail not shown here. Identical values can stand only once. This continues a long series; more values of the same kind are listed elsewhere. Toxic doses and inconclusive results are not listed.

Test system: P388 leukemia ip, CD2F1 mice, survival T/C
Test: NCI In Vivo Anticancer Drug Screen. Data for tumor model P388 Leukemia (intraperitoneal) in CD2F1 (CDF1) mice
Conditions: endpoint: median survival time, higher = longer survival
Experimental: The antitumor activity of compounds was measured in mice bearing transplantable tumors. Survival or tumor size were measured and the results are expressed as the measurement made in the treated group (T) divided by the measurement made in the vehicle treated control group (C). The tumor model used in this assay is P388 Leukemia (intraperitoneal) in CD2F1 (CDF1) mice

Which T/C (dose: 0.78 mg/kg/injection, schedule: Q01DX009 (ip), vehicle: water) does the source give for ClCC[N+]12CC[N+](CCCl)(CC1)C2 here?
The T/C was 150 % of control and 157 % of control.

And the T/C (dose: 1.56 mg/kg/injection, schedule: Q01DX009 (ip), vehicle: water)?
The T/C was 160 % of control and 163 % of control.

And the T/C (dose: 3.12 mg/kg/injection, schedule: Q01DX009 (ip), vehicle: water)?
The T/C was 193 % of control.

And the T/C (dose: 3.13 mg/kg/injection, schedule: Q01DX009 (ip), vehicle: water)?
The T/C was 118 % of control.

And the T/C (dose: 6.25 mg/kg/injection, schedule: Q01DX009 (ip), vehicle: saline)?
The T/C was 100 % of control.

What about the T/C (dose: 10.0 mg/kg/injection, schedule: Q01DX005 (ip), vehicle: water) of the same compound?
Its T/C is 90 % of control.

What about the T/C (dose: 50.0 mg/kg/injection, schedule: Q01DX009 (ip), vehicle: distilled water + Tween-80) of the same compound?
Its T/C is 169 % of control.

And the T/C (dose: 50.0 mg/kg/injection, schedule: Q01DX009 (ip), vehicle: saline)?
The T/C was 109 % of control.

What about the T/C (dose: 50.0 mg/kg/injection, schedule: Q01DX009 (ip), vehicle: water) of the same compound?
The T/C was 169 % of control [middle of 8 runs].

And the T/C (dose: 60.0 mg/kg/injection, schedule: Q01DX009 (ip), vehicle: water)?
The T/C was 187 % of control.

And the T/C (dose: 66.0 mg/kg/injection, schedule: Q01DX009 (ip), vehicle: water)?
The T/C was 169 % of control.

What about the T/C (dose: 100.0 mg/kg/injection, schedule: Q01DX009 (ip), vehicle: distilled water + Tween-80) of the same compound?
The T/C was 99 % of control.

And the T/C (dose: 100.0 mg/kg/injection, schedule: Q01DX009 (ip), vehicle: saline with Tween-80)?
Its T/C is 179 % of control.

And the T/C (dose: 100.0 mg/kg/injection, schedule: Q01DX009 (ip), vehicle: saline)?
The T/C was 216 % of control and 116 % of control.

And the T/C (dose: 100.0 mg/kg/injection, schedule: Q01DX009 (ip), vehicle: water)?
Its T/C is 185 % of control [middle of 9 runs].

And the T/C (dose: 106.68 mg/kg/injection, schedule: Q01DX009 (ip), vehicle: clinical formulation)?
The T/C was 195 % of control.

What about the T/C (dose: 106.68 mg/kg/injection, schedule: Q01DX009 (ip), vehicle: water) of the same compound?
The T/C was 186 % of control.

And the T/C (dose: 120.0 mg/kg/injection, schedule: Q01DX005 (ip), vehicle: water)?
Its T/C is 219 % of control.

What about the T/C (dose: 120.0 mg/kg/injection, schedule: Q01DX009 (ip), vehicle: water) of the same compound?
Its T/C is 194 % of control and 214 % of control.

What about the T/C (dose: 150.0 mg/kg/injection, schedule: Q01DX009 (ip), vehicle: water) of the same compound?
The T/C was 114 % of control.

And the T/C (dose: 160.0 mg/kg/injection, schedule: Q01DX009 (ip), vehicle: water)?
The T/C was 86 % of control.

And the T/C (dose: 200.0 mg/kg/injection, schedule: Q01DX006 (ip), vehicle: water)?
Its T/C is 192 % of control.

What about the T/C (dose: 200.0 mg/kg/injection, schedule: Q01DX009 (ip), vehicle: saline) of the same compound?
Its T/C is 124 % of control.

And the T/C (dose: 240.0 mg/kg/injection, schedule: Q01DX005 (oral), vehicle: water)?
Its T/C is 91 % of control.

And the T/C (dose: 240.0 mg/kg/injection, schedule: Q01DX009 (oral), vehicle: water)?
The T/C was 95 % of control.
